Experimental findings from ChEMBL document CHEMBL4888484, “Replenishing the malaria drug discovery pipeline: Screening and hit evaluation of the MMV Hit Generation Library 1 (HGL1) against asexual blood stage Plasmodium falciparum ,using a nano luciferase reporter read-out” (2022) are described below.

The campaign covered roughly 150,000 compounds. About 540 (0.36%) showed an effect of 50% or more. This is one part of the list.

This assay has as its system Plasmodium falciparum. As to the kind of experiment: Primary screen in NF54 nanoGlo assay, in single point, at 2uM, 72h; a lower Z score goes with more inhibition. The class given is functional, Erythrocyte. To be noted: timepoint 72 hour.
On to `CC(C)n1cc(-c2c(C(=O)Nc3ccc4c(c3)OC(F)(F)O4)oc3ccccc23)cc(C#N)c1=O`, for which the “% Inhibition” value came out at 4% and the Z score is on record as -0.53.

`CC[C@@H](CC(F)(F)F)NC(=O)c1c(C)n[nH]c1C(C)C`: the “% Inhibition” value is -4% and the Z score worked out at 0.53.

`Cc1cccc(-n2cc(CN3C[C@@H](CN4CCCCCC4)[C@@H](CO)C3)cn2)c1`: the “% Inhibition” value is -9% and the Z score was determined as 0.97.

With `COc1nccc(C(=O)N[C@H]2CCc3cc(O)ccc3C2)n1`, the “% Inhibition” value is listed as 3% and the Z score is -0.47.

For `CCCS(=O)(=O)N1CCC[C@H]1c1noc(COCCOC)n1`, the “% Inhibition” value is listed as -11% and the Z score is recorded as 1.5.

With `CCS(=O)(=O)Oc1ccccc1CN(C(=O)C(C)C)C(C)C`, the “% Inhibition” value turned out to be 2% and the Z score was -0.22.

As for `COc1ccc(NC(=O)N(Cc2ccncc2)C2CC2)cn1`, the “% Inhibition” value is -21% and the Z score is reported as 1.79.

As for `CC(C)(C)n1ncc2c1NC(=O)C[C@@H]2c1ccc2c(c1)OCO2`, the “% Inhibition” value is -4% and the Z score was 0.51.

As to `Cc1nc(CC2CC2)sc1C(=O)N1CCCc2cc(F)ccc21`, the “% Inhibition” value is reported as -2% and the Z score was determined as 0.25.

Consider `CC(C)Cc1nc2cc(NS(=O)(=O)N(C)C)cc(C(=O)NCC(C)(C)N3CCOCC3)c2n1C`, for which the “% Inhibition” value is reported as 0% and the Z score is -0.05.

With `CC(C)CCNC(N)=NC[C@H](O)c1ccccc1F`, the “% Inhibition” value was determined as 1% and the Z score is -0.13.

In the case of `CCC(NC(=O)Cn1ccnc1C)[C@H]1C[C@H](O)C1` (stereo partly drawn), the “% Inhibition” value is on record as -6% and the Z score is reported as 0.64.

Take `COC(=O)[C@@H]1CS(=O)(=O)CCN1C(=O)OC(C)(C)C`: the “% Inhibition” value is listed as -7% and the Z score is listed as 0.94.

`O=C(NCCc1nnc2ccccn12)c1ccc(C#Cc2ccccc2)cc1`: the “% Inhibition” value is given as -19% and the Z score came out at 3.79.

As to `Cc1ccc(C)c(Cn2c(C)c(CNC3CCCCCC3)c(C(=O)O)c2C)c1`, the “% Inhibition” value is reported as -6% and the Z score stood at 0.76.

For `CC(NC(=O)NC1CCCOC1)c1ccc(OC(F)(F)F)cc1` (stereo not drawn), the “% Inhibition” value is on record as -2% and the Z score is listed as 0.37.

With `CNC(N)=NCC(C)(C)c1ccc(Cl)cc1`, the “% Inhibition” value is 5% and the Z score was -0.55.

As to `COc1cnc(NC(=O)CC2(C)CCCCC2)s1`, the “% Inhibition” value is listed as -12% and the Z score is listed as 1.34.

As for `Cc1nc(C)n(C[C@H](O)c2ccccc2Cl)n1`, the “% Inhibition” value stood at 3% and the Z score is -0.49.

On to `Cc1cnc(-n2ncc(C(=O)N3CCN(CCO)CC3)c2C2CC2)nc1-c1cccs1`, for which the “% Inhibition” value is -7% and the Z score came out at 1.15.

Take `Cc1nn(-c2ccccc2)c(C)c1-c1ccnc(N(C)Cc2ccccn2)n1`: the “% Inhibition” value is listed as -9% and the Z score is 1.62.

`Cc1ccc([C@H](C)NC(=O)C2CCN(c3cc(-c4cccc(C)c4)ncn3)CC2)cc1`: the “% Inhibition” value is listed as -3% and the Z score is recorded as 0.38.

As to `Cc1ccccc1C(=O)N1[C@H](C(=O)N2CCCC2)COC12CCN(C(=O)c1ccc(F)cc1)CC2`, the “% Inhibition” value is -3% and the Z score amounted to 0.44.

As to `OCCN(Cc1cnn(Cc2ccccc2)c1)c1ncc(F)cn1`, the “% Inhibition” value amounted to 4% and the Z score was -0.4.

As for `C[C@@H](CNC(=O)C1(C)CCOCC1)Oc1ccc(Cl)cc1`, the “% Inhibition” value was -8% and the Z score came out at 0.88.

As for `Cc1ccc(N2CCCN(Cc3c(F)cccc3F)C2=O)c(NS(=O)(=O)c2cccc(Cl)c2)c1`, the “% Inhibition” value is reported as 1% and the Z score is -0.09.

`FC(F)(F)Cn1ncnc1Cc1n[nH]c2ccccc12`: the “% Inhibition” value was -2% and the Z score came to 0.42.

Consider `CC1CC1c1nnc(C2(c3ccc(Cl)cc3)CCOCC2)o1` (stereo not drawn), for which the “% Inhibition” value is -9% and the Z score came to 1.36.

In the case of `COc1ncccc1C(=O)Nc1cc(C(N)=O)ccc1NCc1ccccc1`, the “% Inhibition” value was -8% and the Z score is 0.79.

Take `Cn1nncc1S(=O)(=O)NC(=O)C(C)(C)Oc1ccc(C(F)(F)F)cc1`: the “% Inhibition” value is recorded as -1% and the Z score came to 0.22.

For `Cc1cccnc1CN(Cc1ccccc1)C(=O)CCC1CCN(C)CC1`, the “% Inhibition” value amounted to 2% and the Z score is listed as -0.31.

Take `CCCc1occc1C(=O)N1CCCC2(CCCCO2)C1C#N` (stereo not drawn): the “% Inhibition” value is listed as 3% and the Z score is -0.25.

As to `COc1ccc2[nH]cc(CCNC(=O)c3cc4n(n3)CCCN(Cc3ccc(F)cc3)C4=O)c2c1`, the “% Inhibition” value was -13% and the Z score was determined as 1.23.

With `Cc1nn(C)c(C)c1S(=O)(=O)N1CCC(N2CCN(c3ncc(C(F)(F)F)cc3Cl)CC2)CC1`, the “% Inhibition” value is listed as -11% and the Z score is on record as 1.47.

Regarding `COc1ccc(-c2ccc(-n3cccn3)cc2)c(C(=O)O)c1`, the “% Inhibition” value was 0% and the Z score was -0.05.

Regarding `COc1ccccc1OC1(C(=O)O)CCN(Cc2cc(C(C)(C)C)[nH]n2)CC1`, the “% Inhibition” value is -14% and the Z score came to 1.27.

Consider `Cc1cc(-c2ccc(S(=O)(=O)N3CCOCC3)s2)n[nH]1`, for which the “% Inhibition” value came out at 31% and the Z score is -0.66.

In the case of `COc1cc(NCCn2nnc3ccccc32)ncn1`, the “% Inhibition” value is recorded as -12% and the Z score came to 2.29.

As to `Cc1cc(CCNC(=O)NC(C)(C)C)on1`, the “% Inhibition” value is listed as -1% and the Z score was 0.08.

Take `CCC1OCCCC1C(=O)Nc1nc(C)nn1-c1ccccc1` (stereo not drawn): the “% Inhibition” value is listed as -7% and the Z score came out at 0.89.

For the compound `Cc1nn(C(F)F)cc1-c1cccc(C(=O)NC[C@@H](CO)Cc2ccco2)c1`, the “% Inhibition” value amounted to 1% and the Z score is -0.11.

Consider `CCc1c(C)sc(NC(=O)c2scnc2C)c1C#N`, for which the “% Inhibition” value is on record as -20% and the Z score amounted to 2.47.

For the compound `CCOCCCN1CCC(NC(=O)c2cccc(N(C)C)c2)C(C)C1` (stereo not drawn), the “% Inhibition” value is recorded as -15% and the Z score was determined as 1.36.

`COc1ccc([C@H]2C[C@@H]2C(=O)N2CCC[C@H](C(=O)NC(C)C)C2)cc1`: the “% Inhibition” value is listed as 0% and the Z score is -0.02.

Turning to `Cc1nn(C)c(Cl)c1CN(C)C[C@H]1CC(=O)N(C2CCCC2)C1`, the “% Inhibition” value is on record as 0% and the Z score is reported as -0.01.

Regarding `Cc1cc(O[C@H]2CCN(S(=O)(=O)Cc3ccccc3)C2)nc(C)n1`, the “% Inhibition” value is on record as -2% and the Z score stood at 0.34.

Take `FC(F)COCCOc1cccn2ccnc12`: the “% Inhibition” value is on record as -3% and the Z score is recorded as 0.36.

In the case of `CC(C)c1cc(CN(C)CCCc2cccnc2)no1`, the “% Inhibition” value was -16% and the Z score came to 3.08.

Take `CN(CCNc1nc(-c2ccccc2)no1)Cc1ccccc1`: the “% Inhibition” value was -26% and the Z score is 2.27.

In the case of `COCCc1nsc(N2CCN(c3ccc(N)nc3)CC2)n1`, the “% Inhibition” value was -2% and the Z score was determined as 0.32.

Turning to `O=S(=O)(Nc1nnc2ccccn12)c1cc(Br)ccc1Cl`, the “% Inhibition” value was -9% and the Z score amounted to 1.45.

Regarding `COc1cc(CNCCN2CCCC[C@@H]2CO)ccc1F`, the “% Inhibition” value is recorded as 1% and the Z score is reported as -0.1.

As to `O=C(c1cccc2nccnc12)N1CCC[C@@]2(CCCO2)CC1`, the “% Inhibition” value was -8% and the Z score is recorded as 1.37.

For the compound `CCN(CCNC(=O)Cc1ccc2nc(NC(C)=O)sc2c1)c1ccccc1`, the “% Inhibition” value is -3% and the Z score was determined as 0.25.

As a reminder, the % Inhibition is the drop in the measured response relative to a control, in per cent.
